In PMC11446459:
These are yes or no findings as the source states them, for the method shown. Some binding calls cover weakened binding; strength is not graded here. Where a sequence is shown, tags or fusion partners need not be part of it.

T1: CAL1, CA module subunit of complex I, Gal4 DNA-binding domain fusion (Arabidopsis) (UniProt Q9FMV1)
T1 sequence: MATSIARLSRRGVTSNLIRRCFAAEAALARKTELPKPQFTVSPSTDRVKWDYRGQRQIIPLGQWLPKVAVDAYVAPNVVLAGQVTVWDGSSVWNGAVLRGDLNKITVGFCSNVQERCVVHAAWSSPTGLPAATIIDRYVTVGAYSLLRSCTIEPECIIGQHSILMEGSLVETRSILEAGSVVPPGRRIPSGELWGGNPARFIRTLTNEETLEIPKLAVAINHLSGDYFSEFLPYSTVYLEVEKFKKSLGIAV

T2: δ subunit of the F1 module of complex V, Gal4 DNA-binding domain fusion (Arabidopsis) (UniProt Q96252)
T2 sequence: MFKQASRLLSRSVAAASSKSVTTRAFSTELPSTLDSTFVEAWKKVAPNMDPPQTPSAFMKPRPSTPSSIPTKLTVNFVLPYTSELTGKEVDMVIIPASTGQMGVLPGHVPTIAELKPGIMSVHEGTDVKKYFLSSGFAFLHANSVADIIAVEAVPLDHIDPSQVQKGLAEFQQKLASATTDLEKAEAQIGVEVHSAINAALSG

T3: CAL2, CA domain subunit of complex I, Gal4 DNA-binding domain fusion (Arabidopsis) (UniProt Q9SMN1)
T3 sequence: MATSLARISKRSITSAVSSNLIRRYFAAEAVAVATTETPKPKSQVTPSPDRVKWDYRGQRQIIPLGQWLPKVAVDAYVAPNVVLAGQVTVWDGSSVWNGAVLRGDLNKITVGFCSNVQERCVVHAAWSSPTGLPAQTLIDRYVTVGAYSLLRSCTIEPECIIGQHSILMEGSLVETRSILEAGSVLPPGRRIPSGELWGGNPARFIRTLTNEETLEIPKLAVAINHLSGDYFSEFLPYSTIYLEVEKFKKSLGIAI

T4: A6, Q module subunit of complex I, Gal4 DNA-binding domain fusion (Arabidopsis) (UniProt Q9LHI0)
T4 sequence: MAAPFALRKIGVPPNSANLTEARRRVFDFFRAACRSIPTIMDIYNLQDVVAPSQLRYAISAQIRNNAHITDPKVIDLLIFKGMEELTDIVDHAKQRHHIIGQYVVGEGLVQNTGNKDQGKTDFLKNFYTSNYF


Legend:
Assay in all cases: two-hybrid; Gal4 system (Matchmaker Gold); C1-FDX, ACP1, ACP2 in pGADT7, CI and CV subunits in pGBKT7; yeast AH109; growth on SD/-Trp/-Leu/-His/-Ade/+ x-α-gal for 4 days at 30°C
[1] = molecular target: T1, CAL1, CA module subunit of complex I, Gal4 DNA-binding domain fusion (Arabidopsis)
[2] = molecular target: T2, δ subunit of the F1 module of complex V, Gal4 DNA-binding domain fusion (Arabidopsis)
[3] = molecular target: T3, CAL2, CA domain subunit of complex I, Gal4 DNA-binding domain fusion (Arabidopsis)
[4] = molecular target: T4, A6, Q module subunit of complex I, Gal4 DNA-binding domain fusion (Arabidopsis)

Binder | binding [1] | binding [2] | binding [3] | binding [4]
ACP1, Gal4 activation domain fusion (protein, UniProt P53665 1-122) MALRNAILRHLRVPVQTLGLNQSKIGFLGTIRSFSSHDDHLSREAVVDRVLDVVKSFPKVDPSKVTPEVHFQNDLGLDSLDTVEIVMAIEEEFKLEIPDKEADKIDSCSLAIEYVYNHPMSS | binds | binds | no binding | 
ACP2, Gal4 activation domain fusion (protein, UniProt O80800 1-126) MAARGAMLRYLRVNVNPTIQNPRECVLPFSILLRRFSEEVRGSFLDKSEVTDRVLSVVKNFQKVDPSKVTPKANFQNDLGLDSLDSVEVVMALEEEFGFEIPDNEADKIQSIDLAVDFIASHPQAK | binds |  | no binding | binds
